B1: HRAS_Y64_Q61K (peptide)
chain: AGKEEYSAMRD
B2: HPRT1_Y198_D194N_YF (peptide)
chain: LNFNEYFRDLN
B3: HP_Y125_E130K (peptide)
chain: EGDGVYTLNNK
B4: HSD17B4_Y602_A606S (peptide)
chain: VISNAYVDLSP
B5: HP_Y280 (peptide)
chain: VGRVGYVSGWG
B6: HTATIP2_Y111 (peptide)
chain: RVDRDYVLKSA
B7: HRH1_Y386 (peptide)
chain: NTGLDYIKFTW
B8: HP_Y272_G276R (peptide)
chain: LPSKDYAEVRR
B9: HSPA9_Y196 (peptide)
chain: ITVPAYFNDSQ
B10: HUWE1_Y4078_N4075K (peptide)
chain: MFKPMYALFRT
B11: HRC_Y99_S96A (peptide)
chain: DVAKEYGHLLP
B12: HRNR_Y517_Y517C (peptide)
chain: GSSSSCGQHGS
B13: HNRNPH3_Y161_YF (peptide)
chain: FNNFGYGNDGF
B14: HPRT1_Y198_D201G (peptide)
chain: LDYNEYFRGLN
B15: HNRNPH3_Y161_N163S_YF (peptide)
chain: FNNFGYGSDGF
B16: HPRT1_Y81_D80V (peptide)
chain: ADLLVYIKALN
B17: HSPA9_Y181 (peptide)
chain: ETAENYLGHTA
B18: HSPA1A_Y115 (peptide)
chain: ETKAFYPEEIS

The list shows a part of the results. No stated cut-off is given here; in the data, active = 3.2 or more and inactive = the rest. Most of these values are background signal.
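Further: displayed peptides selected on beads carrying the immobilized SH2 domain, with library peptides lacking any tyrosine serving as negative controls.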

One experiment concerns the target SHP2 C-SH2 domain E139D. As to the kind of experiment: enrichment score (SH2-bound / input frequency) (ratio); bacterial display of known human phosphotyrosine sites (pTyr-Var adds point mutants) read by sequencing; higher = stronger binding; tyrosines were phosphorylated by kinases first. Particulars: peptide library: pTyr-Var.
For the molecule B1, the enrichment score is inactive: 0.518.

On to B2, for which the enrichment score is inactive: 1.16.

As for B3, the enrichment score is inactive: 0.642.

Take B4: the enrichment score is inactive: 1.02.

B5: the enrichment score was inactive: 0.972.

Consider B6, for which the enrichment score is inactive: 0.751.

B7: the enrichment score is inactive: 1.06.

On to B8, for which the enrichment score is inactive: 0.657.

As for B9, the enrichment score was inactive: 1.01.

Regarding B10, the enrichment score is inactive: 2.42.

With B11, the enrichment score is inactive: 0.63.

On to B12, for which the enrichment score was inactive: 0.873.

Turning to B13, the enrichment score is inactive: 0.713.

On to B14, for which the enrichment score is inactive: 0.739.

Regarding B15, the enrichment score was inactive: 0.9.

Turning to B16, the enrichment score is inactive: 1.65.

Turning to B17, the enrichment score is inactive: 0.636.

On to B18, for which the enrichment score was inactive: 0.691.

A further experiment concerns the target SHP2 C-SH2 domain wild-type. Described as above. Particulars: peptide library: pTyr-Var.
For B1, the enrichment score is inactive: 0.502.

With B2, the enrichment score is inactive: 1.17.

B3: the enrichment score is inactive: 0.618.

As to B4, the enrichment score is inactive: 0.955.

On to B5, for which the enrichment score is inactive: 0.92.

Regarding B6, the enrichment score is inactive: 0.741.

Consider B7, for which the enrichment score was inactive: 1.16.

Consider B8, for which the enrichment score was inactive: 0.981.

On to B9, for which the enrichment score was inactive: 1.06.

B10: the enrichment score was inactive: 2.18.

Regarding B11, the enrichment score was inactive: 0.63.

Regarding B12, the enrichment score is inactive: 0.737.

In the case of B13, the enrichment score is inactive: 0.769.

B14: the enrichment score was inactive: 0.627.

Consider B15, for which the enrichment score is inactive: 0.798.

Turning to B16, the enrichment score was inactive: 1.75.

B17: the enrichment score is inactive: 0.518.

For B18, the enrichment score is inactive: 0.821.

The target of a further experiment is SHP2 N-SH2 domain L43F. The description is as above. To be noted: peptide library: pTyr-Var.
Consider B1, for which the enrichment score is inactive: 0.459.

As for B2, the enrichment score is inactive: 1.11.

As for B3, the enrichment score was inactive: 0.709.

Take B4: the enrichment score was inactive: 1.01.

Turning to B5, the enrichment score was inactive: 0.953.

Turning to B6, the enrichment score was inactive: 0.87.

Consider B7, for which the enrichment score was inactive: 1.71.

B8: the enrichment score is inactive: 0.546.

Take B9: the enrichment score was inactive: 0.984.

As for B10, the enrichment score is inactive: 2.27.

B11: the enrichment score is inactive: 0.628.

On to B12, for which the enrichment score was inactive: 0.805.

In the case of B13, the enrichment score is inactive: 0.857.

Consider B14, for which the enrichment score was inactive: 0.699.

Turning to B15, the enrichment score was inactive: 0.743.

For B16, the enrichment score is inactive: 1.35.

For B17, the enrichment score is inactive: 0.667.

B18: the enrichment score is inactive: 0.792.

Another experiment concerns the target SHP2 N-SH2 domain T42A. Described as above. Particulars: peptide library: pTyr-Var.
As for B1, the enrichment score is inactive: 0.483.

B2: the enrichment score is inactive: 1.28.

With B3, the enrichment score was inactive: 0.619.

For B4, the enrichment score was inactive: 3.09.

As to B5, the enrichment score is inactive: 0.847.

As for B6, the enrichment score is inactive: 0.808.

As for B7, the enrichment score is inactive: 2.8.

On to B8, for which the enrichment score was inactive: 0.559.

Turning to B9, the enrichment score is inactive: 1.02.

As for B10, the enrichment score is inactive: 2.09.

Turning to B11, the enrichment score is inactive: 0.73.

Take B12: the enrichment score is inactive: 0.564.

Take B13: the enrichment score is inactive: 0.771.

B14: the enrichment score is inactive: 0.698.

As to B15, the enrichment score was inactive: 0.746.

On to B16, for which the enrichment score is inactive: 1.2.

In the case of B17, the enrichment score is inactive: 0.529.

With B18, the enrichment score is inactive: 0.693.

In another experiment the target is SHP2 N-SH2 domain T52S. Described as above. Particulars: peptide library: pTyr-Var.
As to B1, the enrichment score is inactive: 0.452.

B2: the enrichment score was inactive: 1.15.

Take B3: the enrichment score was inactive: 0.613.

Turning to B4, the enrichment score is inactive: 0.854.

As to B5, the enrichment score was inactive: 0.946.

Consider B6, for which the enrichment score is inactive: 0.764.

On to B7, for which the enrichment score was inactive: 1.9.

As to B8, the enrichment score was inactive: 0.607.

With B9, the enrichment score is inactive: 1.17.

As for B10, the enrichment score was inactive: 2.24.

Turning to B11, the enrichment score was inactive: 0.636.

As for B12, the enrichment score was inactive: 0.745.

Consider B13, for which the enrichment score was inactive: 0.814.

B14: the enrichment score is inactive: 0.711.

Turning to B15, the enrichment score is inactive: 0.921.

Consider B16, for which the enrichment score was inactive: 1.42.

With B17, the enrichment score is inactive: 0.589.

As for B18, the enrichment score is inactive: 0.77.

For another experiment, the target named is SHP2 N-SH2 domain wild-type. The description is as above. Particulars: peptide library: pTyr-Var.
Take B1: the enrichment score was inactive: 0.55.

With B2, the enrichment score is inactive: 0.867.

With B3, the enrichment score is inactive: 0.652.

For the molecule B4, the enrichment score is inactive: 1.15.

Consider B5, for which the enrichment score is inactive: 1.06.

On to B6, for which the enrichment score was inactive: 0.986.

Take B7: the enrichment score was inactive: 1.19.

On to B8, for which the enrichment score is inactive: 0.478.

Consider B9, for which the enrichment score is inactive: 1.15.

Consider B10, for which the enrichment score is inactive: 1.8.

As to B11, the enrichment score is inactive: 0.726.

With B12, the enrichment score is inactive: 0.985.

As to B13, the enrichment score is inactive: 0.682.

Turning to B14, the enrichment score is inactive: 0.642.

For B15, the enrichment score is inactive: 0.813.

With B16, the enrichment score was inactive: 1.75.

With B17, the enrichment score was inactive: 0.538.

On to B18, for which the enrichment score was inactive: 0.861.

Values taken from the supplement of paper PMC10369915.
